From paper PMC4336329 (PLoS ONE, 2015)
About 14,000 (4.5%) of roughly 310,000 compounds showed an effect of 50% or more. Effects have a minus sign here. Some of the results follow.

biological target: human ether-à-go-go-related gene (hERG) potassium channel (human, UniProt Q12809); test: primary screen, population patch clamp on CHO cells stably expressing hERG
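Also: peak tail current of the secondary pulse compared with the same well before compound.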

Sequence of human ether-à-go-go-related gene (hERG) potassium channel (Q12809 whole entry, looked up): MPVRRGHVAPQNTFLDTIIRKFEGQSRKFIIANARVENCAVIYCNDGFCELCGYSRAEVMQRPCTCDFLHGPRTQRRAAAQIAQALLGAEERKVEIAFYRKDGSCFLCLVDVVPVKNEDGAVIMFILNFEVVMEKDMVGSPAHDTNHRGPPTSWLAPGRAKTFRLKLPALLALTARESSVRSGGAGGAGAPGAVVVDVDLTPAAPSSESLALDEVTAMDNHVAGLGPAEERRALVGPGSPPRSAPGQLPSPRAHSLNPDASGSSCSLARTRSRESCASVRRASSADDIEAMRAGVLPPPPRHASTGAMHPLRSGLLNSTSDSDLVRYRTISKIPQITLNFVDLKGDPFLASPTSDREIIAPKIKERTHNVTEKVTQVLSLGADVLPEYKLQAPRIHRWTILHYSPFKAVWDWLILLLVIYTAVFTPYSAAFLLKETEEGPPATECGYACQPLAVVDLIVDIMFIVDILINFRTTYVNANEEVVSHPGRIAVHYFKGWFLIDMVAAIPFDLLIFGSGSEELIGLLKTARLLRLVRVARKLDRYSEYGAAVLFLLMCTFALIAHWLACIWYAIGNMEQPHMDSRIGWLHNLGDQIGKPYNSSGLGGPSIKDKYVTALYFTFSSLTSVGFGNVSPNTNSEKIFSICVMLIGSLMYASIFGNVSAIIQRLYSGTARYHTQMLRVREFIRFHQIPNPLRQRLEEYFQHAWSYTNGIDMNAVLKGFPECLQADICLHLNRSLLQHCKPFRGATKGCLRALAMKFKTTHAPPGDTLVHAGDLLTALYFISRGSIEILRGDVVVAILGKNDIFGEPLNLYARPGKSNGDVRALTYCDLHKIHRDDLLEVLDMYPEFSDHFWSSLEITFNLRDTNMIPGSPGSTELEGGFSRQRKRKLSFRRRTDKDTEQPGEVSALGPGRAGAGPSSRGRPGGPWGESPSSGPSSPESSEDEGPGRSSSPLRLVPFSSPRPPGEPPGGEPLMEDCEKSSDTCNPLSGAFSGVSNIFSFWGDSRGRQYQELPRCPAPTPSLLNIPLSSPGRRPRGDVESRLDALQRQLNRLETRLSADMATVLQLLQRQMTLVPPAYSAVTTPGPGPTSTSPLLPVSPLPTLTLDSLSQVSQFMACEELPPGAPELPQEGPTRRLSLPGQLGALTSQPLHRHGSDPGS

Going from `Clc1cc(Cl)cc(NC2=NCCS2)c1` to `Cn1c(Cl)c(C(=O)Nc2ccc(Cl)cc2)c2ccccc21`, the “hERG current change (%, negative = inhibition) at 10uM” value rises from -10.4% to 18.5%.

Compared with `O=S(=O)(c1cccs1)N1CCCc2cccc(O)c21`, `CC(=O)c1ccc(N2CCN(S(=O)(=O)c3ccccc3)CC2)c(F)c1` is lower in “hERG current change (%, negative = inhibition) at 10uM” value: 7.34% for the first, -15.8% for the second.

Compared with `COC(=O)c1ccccc1NC(=O)C1CCN(c2ncnc3c2nc2n3CCCCC2)CC1`, `CCOc1ccccc1NC(=O)C1CCCN(S(=O)(=O)c2ccc(OC)c(C)c2)C1` (stereo not drawn) is higher in “hERG current change (%, negative = inhibition) at 10uM” value: -24.9% for the first, -5.35% for the second.

Going from `CCn1cc(CN2CCC(C(=O)Nc3cccc(-c4cccc(Cl)c4)c3)CC2)cn1` to `Cc1ccc(C(=O)Oc2cccc(NC(=O)c3ccco3)c2)cc1S(=O)(=O)N1CCC(C)CC1`, the “hERG current change (%, negative = inhibition) at 10uM” value rises from -67.9% to -12.1%.

Going from `O=C(Cc1cccs1)N/N=C/C=C/c1ccco1` to `Cc1ccc(OCC(=O)NCc2cccs2)c([N+](=O)[O-])n1`, the “hERG current change (%, negative = inhibition) at 10uM” value falls from -0.423% to -19%.

First: O=S1(=O)N=C(Nc2ccc(O)c(CN3CCCCC3)c2)c2ccccc21
Second: CC1CCCN(C(=O)COc2ccc(Nc3ccccc3)cc2)C1 (stereo not drawn)
The “hERG current change (%, negative = inhibition) at 10uM” value of the first is lower: -21.3% for the first, -12.6% for the second.

First: O=C1/C(=C\c2ccc(-c3ccccc3Cl)o2)SC(=S)N1CC1CCCO1 (stereo not drawn)
Second: Cc1cccc(C)c1NC(=O)CSc1nnc(C)n1CC1CCCO1 (stereo not drawn)
The “hERG current change (%, negative = inhibition) at 10uM” value of the first is lower: 1.06% for the first, 14.7% for the second.

Compared with `CC(C)CC(CO)N1CCN(C(=O)c2ccc(Cl)c(Cl)c2)CCC1=O` (stereo not drawn), `CCOC(=O)N1CCN(C(=O)c2cc3cc(Cl)ccc3[nH]2)CC1` is lower in “hERG current change (%, negative = inhibition) at 10uM” value: 4.77% for the first, -15.7% for the second.

First: CCOc1cccc(CNc2ccc(O)cc2)c1OCc1ccc(Cl)cc1Cl
Second: CCOc1ccccc1NC(=O)NCc1ccc2c(c1)OCO2
The “hERG current change (%, negative = inhibition) at 10uM” value of the first is lower: 1.69% for the first, 22.4% for the second.

Going from `COC(=O)[C@@]1(Cc2ccc(OC)cc2)[C@H]2c3cc(C(=O)N4CCCC4)n(CCn4cc([N+](=O)[O-])nc4C)c3C[C@H]2CN1C(=O)c1ccccc1` to `O=C(Cc1ccccc1)NC1CCN(S(=O)(=O)c2ccc(C(=O)O)cc2)CC1`, the “hERG current change (%, negative = inhibition) at 10uM” value rises from 2.3% to 5.11%.

First: NC(=S)N=Nc1c(O)n(CC(=O)Nc2ccccc2)c2ccccc12
Second: O=C(Cc1ccccc1)Nc1nc2ccccc2[nH]1
The “hERG current change (%, negative = inhibition) at 10uM” value of the first is higher: 16.4% for the first, 3.62% for the second.

Compared with `Nc1nc2c(C(=O)N3CCOCC3)nnn2c2ccccc12`, `O=c1c2[nH]c3ccccc3c2ncn1CCN1CCOCC1` is lower in “hERG current change (%, negative = inhibition) at 10uM” value: 14% for the first, 4.87% for the second.

Compared with `CCNC(=S)N/N=C(\C)c1ccc(N2CCOCC2)cc1`, `O=C(Nc1ccccc1N1CCOCC1)c1ccccc1[N+](=O)[O-]` is lower in “hERG current change (%, negative = inhibition) at 10uM” value: 13.7% for the first, -7.67% for the second.

First: Fc1cccc(/C=N/Nc2nccnc2Cl)c1
Second: O=C1NCCCC1C(=O)N/N=C/c1cccc(Cl)c1 (stereo not drawn)
The “hERG current change (%, negative = inhibition) at 10uM” value of the first is lower: 10.7% for the first, 22.8% for the second.

First: CCC(C)NC(=O)c1ccc(N2CC3CC(C2)c2cccc(=O)n2C3)c(NC(=O)c2ccc(Br)o2)c1 (stereo not drawn)
Second: Cc1ccc(C(=O)Nc2cc(C(F)(F)F)ccc2N2CCCCC2)cc1[N+](=O)[O-]
The “hERG current change (%, negative = inhibition) at 10uM” value of the first is lower: 5.86% for the first, 13.6% for the second.

Compared with `NS(=O)(=O)c1ccc(CCNS(=O)(=O)c2cccc3cccnc23)cc1`, `NS(=O)(=O)c1ccc(-c2ccc(/C=N/NC(=O)c3ccc([N+](=O)[O-])cc3)o2)cc1` is higher in “hERG current change (%, negative = inhibition) at 10uM” value: 4.78% for the first, 11.7% for the second.

Going from `Cc1nc2ccc(C(=O)N3CCN(c4ccccn4)CC3)cc2s1` to `O=C(CSc1nnc(-c2ccc(F)cc2)o1)N1CCN(C(=O)c2ccco2)CC1`, the “hERG current change (%, negative = inhibition) at 10uM” value falls from 10.2% to -38.4%.

Compared with `O=C(COC(=O)C1CCN(c2ccc(C(F)(F)F)cn2)CC1)Nc1cc(F)ccc1F`, `O=C(CN1C(=O)NC2(CCCC2)C1=O)Nc1cccc(C(F)(F)F)c1` is higher in “hERG current change (%, negative = inhibition) at 10uM” value: 15.4% for the first, 17% for the second.

Going from `COCCN(C(=O)CSc1nnc(-c2cccc(C)c2)n1C)c1c(N)n(Cc2ccccc2)c(=O)[nH]c1=O` to `COCCn1c(Cc2ccccc2)nnc1SCC(=O)NC(C)(C)C`, the “hERG current change (%, negative = inhibition) at 10uM” value rises from 8.29% to 14.2%.

Compared with `CC(=O)c1cccc(NC(=O)N2C3CCC2CC(NC(=O)C2CC2)C3)c1` (stereo not drawn), `O=C(CC1C(=O)NCCN1Cc1ccccc1F)NC1CCCCCC1` (stereo not drawn) is lower in “hERG current change (%, negative = inhibition) at 10uM” value: 16.3% for the first, 5.01% for the second.

Compared with `C=CCOc1ccc(/C=C2\SC(N3CCCCC3)=NC2=O)cc1`, `O=[N+]([O-])c1cccc2c(N3CCCC3)ccnc12` is lower in “hERG current change (%, negative = inhibition) at 10uM” value: 12.2% for the first, -77.7% for the second.

First: O=C([O-])c1cc(-c2ccccc2)cc(-c2ccccc2)[n+]1Cc1ccccc1
Second: CCOc1ccc(N2C(=O)C(c3ccccc3)=C(c3nc4ccccc4s3)C2NC(C)=O)cc1 (stereo not drawn)
The “hERG current change (%, negative = inhibition) at 10uM” value of the first is lower: -10.1% for the first, 6.42% for the second.

First: COc1ccc(C(=O)NCc2nnc(SCC(=O)Nc3cccc(F)c3)o2)cc1
Second: CCNC(=O)CSc1nc2cc(S(=O)(=O)Nc3ccc(OC)cc3)ccc2o1
The “hERG current change (%, negative = inhibition) at 10uM” value of the first is lower: -1.96% for the first, 2.62% for the second.

First: CCOC(=O)c1sc(C)c2c1NC(C)(c1ccccc1)NC2=O (stereo not drawn)
Second: CCOC(=O)CC(=O)CSc1nc2c(sc(=S)n2-c2ccccc2)c(=O)[nH]1
The “hERG current change (%, negative = inhibition) at 10uM” value of the first is higher: 2.4% for the first, -3.97% for the second.

Going from `COc1ccccc1OCCCC(=O)Nc1nnc(C2CCCO2)s1` (stereo not drawn) to `COc1ccc(C(=O)Nc2nnc(CCc3ccccc3)s2)c(OC)c1`, the “hERG current change (%, negative = inhibition) at 10uM” value rises from 8.75% to 18%.

First: Cc1ccc(OCC(=O)Nc2cnn(CCCC(=O)O)c2)c([N+](=O)[O-])c1
Second: COC(=O)c1cc(C(=O)Nc2ccc(C)cn2)cc([N+](=O)[O-])c1
The “hERG current change (%, negative = inhibition) at 10uM” value of the first is higher: 3.59% for the first, -13.7% for the second.

First: CC(=O)Nc1cccc(OC(=O)COc2ccc(Br)cc2)c1
Second: Cc1ccc(S(=O)(=O)N(C)c2ccc(OCC(=O)O)cc2)cc1
The “hERG current change (%, negative = inhibition) at 10uM” value of the first is lower: -1.19% for the first, 6.45% for the second.

Compared with `COc1ccc(C)cc1N(CC(=O)Nc1ccc(S(=O)(=O)N2CCCC2)cc1)S(C)(=O)=O`, `CN(C1CCCCC1)S(=O)(=O)c1ccc(S(=O)(=O)N2CCN(CCC#N)CC2)cc1` is higher in “hERG current change (%, negative = inhibition) at 10uM” value: -15.9% for the first, 2.73% for the second.

Going from `O=C(Nc1ccc(N2CCOCC2)c([N+](=O)[O-])c1)c1ccco1` to `CC(C)C(=O)N1CCN(c2c(Cl)cccc2[N+](=O)[O-])CC1`, the “hERG current change (%, negative = inhibition) at 10uM” value falls from -6.41% to -16.5%.

Going from `CC(Nc1ncnc2ccccc12)c1ccccc1` (stereo not drawn) to `COCc1cc(Sc2c(Cl)cccc2Cl)nc(-c2ccccc2)n1`, the “hERG current change (%, negative = inhibition) at 10uM” value rises from 5.95% to 24.8%.

First: CCOC(=O)N1CCC(NC(=O)c2ccc3c(Cl)c4c(nc3c2)CCCC4)CC1
Second: CCOC(=O)CSc1n[nH]c(NC(=O)c2cccc(C)c2)n1
The “hERG current change (%, negative = inhibition) at 10uM” value of the first is lower: -36.6% for the first, -15.3% for the second.

First: CC(C)COC(=O)NCC12C=CC(O1)C1C(=O)N(c3ccc(Cl)cc3)C(=O)C12 (stereo not drawn)
Second: Cc1cc(N2C(=O)C3C4C=CC(C4)C3C2=O)ccc1Br (stereo not drawn)
The “hERG current change (%, negative = inhibition) at 10uM” value of the first is higher: 4.85% for the first, 3.78% for the second.

Going from `COc1cc(C2/C(=C(\O)c3ccc4c(c3)OCCO4)C(=O)C(=O)N2c2nnc(C)s2)cc(OC)c1OC` (stereo not drawn) to `CCOC(=O)c1ccc(-n2c(C)nc3c(cnn3-c3ccccc3Cl)c2=O)cc1`, the “hERG current change (%, negative = inhibition) at 10uM” value falls from 18.3% to -8.21%.

Compared with `CS(=O)(=O)N1CCN(c2ccc(C(=O)NC34CC5CC(CC(C5)C3)C4)cc2[N+](=O)[O-])CC1`, `Cc1cc(N2CCN(C)CC2)nc2ccc(NC(=S)N3CCC4(CC3)OCCO4)cc12` is lower in “hERG current change (%, negative = inhibition) at 10uM” value: 9.45% for the first, -34% for the second.

First: CCOC(=O)C1=C(C)NC(=S)NC1C (stereo not drawn)
Second: Cc1nc(SCC(=O)Nc2nnc(C(C)C)s2)n[nH]1
The “hERG current change (%, negative = inhibition) at 10uM” value of the first is lower: 14.3% for the first, 19.2% for the second.

Going from `Cc1ccc(C(=O)/C=C/NCc2ccc(F)cc2)cc1` to `Cc1ccc(SCCNC(=O)c2ccccc2F)cc1`, the “hERG current change (%, negative = inhibition) at 10uM” value rises from -9.71% to 1.09%.

Going from `Cc1ccccc1Oc1ncccc1C(=O)/C(C#N)=C/N(C)C` to `CN(C)CCOC(C)(c1ccccc1)c1ccccn1.O=C(O)CCC(=O)O` (stereo not drawn), the “hERG current change (%, negative = inhibition) at 10uM” value falls from 6.43% to 5.4%.

Going from `O=C1CCC(=O)N1c1nc2nc(-c3ccccc3)cc(=O)n2[nH]1` to `O=C1OC(=O)c2cc([N+](=O)[O-])ccc21`, the “hERG current change (%, negative = inhibition) at 10uM” value falls from 29.3% to 22.1%.

First: C=CCN1C(=O)C(CC(=O)Nc2ccc(OC)cc2)N(Cc2ccco2)C1=S (stereo not drawn)
Second: COc1ccc2nc(NC(=O)CCn3cccc3)sc2c1
The “hERG current change (%, negative = inhibition) at 10uM” value of the first is lower: -22.5% for the first, 0.405% for the second.

Going from `COC(=O)c1ccc(/C=N/n2cnnc2)cc1` to `CC(=O)c1ccc(NC(=O)c2cnsn2)cc1`, the “hERG current change (%, negative = inhibition) at 10uM” value rises from 10.1% to 11.4%.

First: COc1ccc(-n2nnnc2SCC(=O)c2ccc(O)c(O)c2)cc1
Second: COc1ccc(C/C(C)=N/NC(=O)c2ccc(C)cc2C)cc1
The “hERG current change (%, negative = inhibition) at 10uM” value of the first is lower: -16.6% for the first, -0.647% for the second.

Going from `Cc1cc(NC(=O)CCC(=O)N(CC(=O)NCC2CCCO2)Cc2ccc(F)cc2)no1` (stereo not drawn) to `COc1cc(NS(=O)(=O)c2ccc(NC(=S)NC(=O)/C=C/c3ccc(F)cc3)cc2)ncn1`, the “hERG current change (%, negative = inhibition) at 10uM” value rises from 6.72% to 10.5%.

First: O=S(=O)(N/N=C\c1cccnc1)c1ccccc1
Second: O=C(NCCCNC(=O)c1ccc(-c2cccc(Cl)c2)o1)c1cnccn1
The “hERG current change (%, negative = inhibition) at 10uM” value of the first is higher: 18.3% for the first, -31.8% for the second.

With `CC(=O)N1CCN=C1SCc1ccccc1F` the “hERG current change (%, negative = inhibition) at 10uM” value was 12.6%.
